Laboratory results as given in paper PMC4336329 (PLoS ONE, 2015).
In all, about 310,000 compounds went through this assay and about 2,200 (0.71%) showed an effect of 50% or more. The effect is printed as a negative number. The list shows a part of the results.

What follows are compounds tested against human ether-à-go-go-related gene (hERG) potassium channel (human, UniProt Q12809) (assay: primary screen, population patch clamp on CHO cells stably expressing hERG).
human ether-à-go-go-related gene (hERG) potassium channel, sequence (Q12809 whole entry, looked up): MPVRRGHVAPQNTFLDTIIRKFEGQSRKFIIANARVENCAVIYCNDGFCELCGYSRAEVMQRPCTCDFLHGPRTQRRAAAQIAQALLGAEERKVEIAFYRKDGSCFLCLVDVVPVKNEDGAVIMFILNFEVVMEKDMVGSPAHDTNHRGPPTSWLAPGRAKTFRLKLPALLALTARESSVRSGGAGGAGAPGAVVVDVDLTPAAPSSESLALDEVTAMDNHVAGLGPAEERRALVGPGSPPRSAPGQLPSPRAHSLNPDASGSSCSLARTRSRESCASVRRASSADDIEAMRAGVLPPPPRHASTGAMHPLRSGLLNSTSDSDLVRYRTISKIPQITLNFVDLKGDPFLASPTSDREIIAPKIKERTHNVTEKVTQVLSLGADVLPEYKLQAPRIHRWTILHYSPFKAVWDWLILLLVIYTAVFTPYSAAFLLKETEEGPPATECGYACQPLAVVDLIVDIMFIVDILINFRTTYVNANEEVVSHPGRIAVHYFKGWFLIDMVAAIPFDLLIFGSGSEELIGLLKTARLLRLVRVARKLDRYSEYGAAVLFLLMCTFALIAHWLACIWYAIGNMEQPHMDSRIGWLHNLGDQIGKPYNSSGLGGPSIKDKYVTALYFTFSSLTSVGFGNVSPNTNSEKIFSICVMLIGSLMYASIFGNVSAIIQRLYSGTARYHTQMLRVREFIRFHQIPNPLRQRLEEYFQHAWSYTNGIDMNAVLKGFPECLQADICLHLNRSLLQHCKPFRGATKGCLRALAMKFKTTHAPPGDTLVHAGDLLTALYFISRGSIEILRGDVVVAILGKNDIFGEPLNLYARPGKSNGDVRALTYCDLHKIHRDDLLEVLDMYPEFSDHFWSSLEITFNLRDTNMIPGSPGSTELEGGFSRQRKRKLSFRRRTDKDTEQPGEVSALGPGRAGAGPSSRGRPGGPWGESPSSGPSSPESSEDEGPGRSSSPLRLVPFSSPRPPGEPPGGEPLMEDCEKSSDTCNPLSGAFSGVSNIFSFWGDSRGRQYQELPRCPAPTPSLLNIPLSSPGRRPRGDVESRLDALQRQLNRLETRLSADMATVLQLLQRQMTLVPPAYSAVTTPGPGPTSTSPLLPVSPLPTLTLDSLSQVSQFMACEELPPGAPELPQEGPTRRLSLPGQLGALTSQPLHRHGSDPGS

| Compound | hERG current change (%, negative = inhibition) at 1uM [%] |
| --- | --- |
| CCn1c(O)c(C=NCCN2CCOCC2)sc1=S | -1.72 |
| CC/C(=N\NC(=S)Nc1ccc(OC)cc1)c1ccc(OC(F)F)cc1 | 7.12 |
| COc1ccc(NC(=S)N2CCN(C)CC2)cc1 | 9.7 |
| CC(=O)Oc1c(Cl)cc(Cl)cc1/C=C/c1ccc2ccccc2n1 | -0.328 |
| O=C(NNC(=O)NC1CCCCC1)NC1CCCCC1 | 9.73 |
| S=C(NCc1ccccc1)NCc1ccccc1 | 6.82 |
| CCN(Cc1cc(=O)n2ccsc2n1)Cc1nc2ccccc2c(=O)[nH]1 | 8.93 |
| CC(C(=O)N1CCN(C2c3ccccc3-c3ccccc32)CC1)N1C(=O)c2ccccc2C1=O (centres unmarked) | 1.9 |
| CC(OC(=O)CCC1CCCC1)C(=O)Nc1ccccc1[N+](=O)[O-] (centres unmarked) | 4.71 |
| Cc1c(C#N)c(O)[nH]c(=O)c1N=Nc1ccc(S(N)(=O)=O)cc1 | 9.28 |
| Nn1c(=O)c2ccccc2n2c(SCc3ccc(C(F)(F)F)cc3)nnc12 | 2.65 |
| NS(=O)(=O)c1ccc(NC(=S)Nc2ccc(Br)c(Cl)c2)cc1 | 16.4 |
| Cc1ccc(S(=O)(=O)CC(=O)NCc2ccccc2)cc1 | 0.616 |
| CC(C)c1ccc2oc(=O)cc(CN3CCCCC3)c2c1 | 1.6 |
| Cc1ccc(/C=N/N=C2/NC(=O)C(CC(=O)Nc3ccccc3)S2)o1 (centres unmarked) | 0.745 |
| O=C(CCc1nc2ccccc2[nH]1)NCc1ccc2c(c1)OCO2 | -8.38 |
| CN(C)N=C1c2cc(S(=O)(=O)N(C)C)ccc2-c2ccc(S(=O)(=O)N(C)C)cc21 | 11.9 |
| CC(=O)c1ccc(OCc2cc(C(=O)N3CC[C@@H]4CCCC[C@H]4C3)no2)cc1 | 1.89 |
| COc1ccccc1OCCn1c(=S)[nH]c2ccccc21 | 2.43 |
| COC(=O)c1ccccc1NC(=S)NC(NC(=O)c1ccco1)C(Cl)(Cl)Cl (centres unmarked) | -5.33 |
| COCC(C)NCc1cccc(OC)c1OC.O=C(O)C(=O)O (centres unmarked) | 13.5 |
| COCc1cc(=O)n2c([nH]c3ccccc32)c1C#N | -6.28 |
| CCC(=O)NC1=C(NC(C)c2ccccc2)C(=O)c2ccccc2C1=O (centres unmarked) | 13.8 |
| CCNc1nc(OC)nc(SCC(=O)Nc2ccccc2)n1 | 15.6 |
| COc1ccc(C(OCC2CO2)c2ccc(OC)cc2)cc1 (centres unmarked) | 6.96 |
| Cc1cc(C)c(N(CC(=O)NCc2ccccc2)C(=O)c2csnn2)c(C)c1 | 7.58 |
